{"source": "PubChem BioAssay AID2675", "about": "(National Center for Advancing Translational Sciences (NCATS), 2010)", "note": "Screen size: about 280,000 compounds; about 100 (0.036%) were called active. The shares of active, inactive and inconclusive entries below differ from those in the screen. Calls come from the whole dose curve; as a rule, active = well fitted inhibition curve with a large enough effect in the signal ratio, with a control signal flat (not every such curve was filed as active); inconclusive = small, poorly fitted or top-dose-only effect, or effect the other way, or a change in a side signal; inactive = no such curve, though single readings can be large or run the other way; the % refers to the signal ratio. Potencies of inconclusive entries are doubtful fits and often do not repeat. “Side channel” marks fits to a control or component signal instead of the main read-out. % is set by controls: 0 for no effect and ±100 for the full control effect; potency is the fitted concentration of half-maximal effect; tags give direction and shape of the fitted curve or compound fluorescence and quenching.", "data": [{"target": "Muscleblind-like protein 1 (Homo sapiens) (UniProt Q9NR56)", "sequence (Q9NR56 whole entry, looked up)": "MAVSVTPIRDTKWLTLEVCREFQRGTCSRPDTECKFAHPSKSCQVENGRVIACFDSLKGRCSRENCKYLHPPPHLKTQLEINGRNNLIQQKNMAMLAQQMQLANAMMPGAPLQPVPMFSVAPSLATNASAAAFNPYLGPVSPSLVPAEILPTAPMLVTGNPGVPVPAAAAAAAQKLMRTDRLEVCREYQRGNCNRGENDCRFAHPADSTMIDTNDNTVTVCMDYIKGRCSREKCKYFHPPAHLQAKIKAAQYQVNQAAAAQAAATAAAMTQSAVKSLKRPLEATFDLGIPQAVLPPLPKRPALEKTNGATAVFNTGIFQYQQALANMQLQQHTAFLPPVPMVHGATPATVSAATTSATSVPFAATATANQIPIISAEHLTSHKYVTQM", "test": "qHTS Assay for Inhibitors of MBNL1-poly(CUG) RNA binding", "settings": "TR-FRET MBNL1-His/biotin-(CUG)12 binding, 665/545 ratio; activity change, negative = inhibition: at 57.5 µM (top of the series)", "method_in_brief": "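Compound titration spanned 92 nM–58 uM against the MBNL1-His/biotin-(CUG)12 complex. After 60 min at room temperature with 5 nM streptavidin-XL665 and 0.055 ng/ul terbium anti-His, ratiometric 665/545 nm emission (Ex 340 nm) normalized to controls.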", "values": [{"smiles": "Cc1ccc(C(=O)N2CCN(c3ccc([N+](=O)[O-])c(N4CCOCC4)c3)CC2)cc1", "Potency": "inconclusive: 31.6 µM [quencher, side channel, single point]"}, {"smiles": "Cc1nn(-c2ccccc2)c(C)c1/C=N/Nc1nc2ccccc2[nH]1", "Potency": "inconclusive: 28.2 µM [quencher, side channel, single point]"}, {"smiles": "Cc1nc(SCCC(=O)O)c2cc(-c3ccccc3)sc2n1", "Potency": "inconclusive: 31.6 µM [quencher, side channel, single point]"}, {"smiles": "O=[N+]([O-])c1cc(Cl)ccc1NCCc1ccccn1", "Potency": "inconclusive: 7.08 µM [quencher, side channel, partial curve]"}, {"smiles": "COc1cc(C2C3CN(C)CC=C3C(C#N)=C(N)C2(C#N)C#N)ccc1OC(C)C", "note": "(stereo not drawn)", "Potency": "inconclusive: 12.6 µM [quencher, partial curve]"}, {"smiles": "Oc1[nH]c(N=C2N=c3ccccc3=N2)c2ccccc12", "Potency": "inactive"}, {"smiles": "CC(C)CN1C(=O)c2ccc(C(=O)Nc3ccncc3)cc2C1=O", "Potency": "inconclusive: 12.6 µM [quencher, side channel, partial curve]"}, {"smiles": "CN(Cc1ccc(OCC(O)CN2CCCCC2)cc1)Cc1ccnc2ccccc12", "note": "(stereo not drawn)", "Potency": "inactive"}, {"smiles": "COc1ccc([N+](=O)[O-])cc1NS(=O)(=O)c1ccc(C)cc1", "Potency": "inconclusive: 14.1 µM [quencher, side channel, partial curve]"}, {"smiles": "C=CCn1c(-c2cccc(OC)c2OC)n[nH]c1=S", "Potency": "inactive"}, {"smiles": "COc1ccc2oc(=O)c(C(=O)N3CCN(c4ccccc4C)CC3)cc2c1", "Potency": "inconclusive: 39.8 µM [quencher, side channel, single point]"}, {"smiles": "CC12CCC(C(=O)N(CSC(=S)N/N=C\\c3ccccc3O)C1=O)C2(C)C", "note": "(stereo not drawn)", "Potency": "inactive"}, {"smiles": "Cc1ccc(/C=C/C(=O)OCC(=O)N2CC(=O)Nc3ccccc32)o1", "Potency": "inconclusive: 17.8 µM [quencher, partial curve]"}, {"smiles": "COCCn1c(SCC(=O)Nc2ccc(NC(=O)c3ccco3)c(OC)c2)nc2ccccc2c1=O", "Potency": "inactive"}, {"smiles": "CNC(=O)C1=C(C)NC(=S)NC1c1cc2c(cc1OC)CCCC2", "note": "(stereo not drawn)", "activity change, negative = inhibition": "inconclusive: -13.5% [phenotype inactive]"}, {"smiles": "O=[N+]([O-])c1c(Nc2ccc(O)cc2)cc(N2CCOCC2)c2nonc12", "Potency": "inconclusive: 2.82 µM [quencher, side channel, full curve]"}, {"smiles": "c1ccc2c(CC3=NCCN3)cccc2c1", "Potency": "inconclusive: 50.1 µM [inhibitor, single point]"}, {"smiles": "Cc1cc(C)c2c(=O)n(-c3ccccc3)[nH]c2n1", "Potency": "inconclusive: 11.2 µM [quencher, side channel, partial curve]"}, {"smiles": "CC(C)(CNc1ccc([N+](=O)[O-])cc1C#N)N1CCOCC1", "Potency": "inconclusive: 7.94 µM [quencher, side channel, full curve, poor fit]"}, {"smiles": "Cc1ccc(NC(=S)Nc2cccc3cnccc23)cc1", "Potency": "inconclusive: 25.1 µM [quencher, side channel, partial curve]"}, {"smiles": "COc1ccc(/C=C(/NC(=O)c2ccc([N+](=O)[O-])cc2)C(=O)NC(C)(C)C)cc1", "Potency": "inconclusive: 15.8 µM [quencher, side channel, partial curve]"}, {"smiles": "COc1ccc(S(=O)(=O)N(CC(=O)NCC2CCCO2)c2ccc(F)cc2)cc1OC", "note": "(stereo not drawn)", "Potency": "inactive"}, {"smiles": "Cn1cccc1C(=O)NC(=O)COC(=O)c1ccccc1O", "Potency": "inconclusive: 5.01 µM [fluorescent, side channel, partial curve]"}, {"smiles": "NS(=O)(=O)c1cc([N+](=O)[O-])ccc1NCc1cccnc1", "Potency": "inconclusive: 15.8 µM [quencher, side channel, partial curve]"}, {"smiles": "COc1cc(NC(=O)CSc2nccc(C)n2)c(C(=O)O)cc1OC", "Potency": "inactive"}, {"smiles": "COCCNC(=O)COC(=O)c1cc(-c2ccc(OC)cc2)nc2ccccc12", "Potency": "inconclusive: 17.8 µM [quencher, side channel, partial curve]"}, {"smiles": "O=C(CCCN1C(=O)c2cccnc2C1=O)Nc1ccc(F)cc1Cl", "Potency": "inconclusive: 17.8 µM [quencher, side channel, partial curve, poor fit]"}, {"smiles": "CCC(C)NC(=O)CNS(=O)(=O)c1ccc(C)cc1", "note": "(stereo not drawn)", "Potency": "inconclusive: 63.1 µM [inhibitor, partial curve]"}, {"smiles": "COc1ccc(CNc2cc(NCCCO)c([N+](=O)[O-])c3nonc23)cc1", "Potency": "inconclusive: 7.94 µM [quencher, side channel, partial curve]"}, {"smiles": "CC(C)CC(=O)Nc1ccc(-c2cn3cccnc3n2)cc1", "Potency": "inconclusive: 11.2 µM [quencher, side channel, partial curve]"}, {"smiles": "O=C(NCC(c1cccs1)N1CCOCC1)c1ccccc1NS(=O)(=O)c1cccc([N+](=O)[O-])c1", "note": "(stereo not drawn)", "Potency": "inconclusive: 28.2 µM [quencher, side channel, single point]"}, {"smiles": "CCOC(=O)CSC1=N/C(=C\\c2cccnc2)C(=O)N1c1ccc(OC)cc1", "Potency": "inconclusive: 0.708 µM [quencher, side channel, full curve, poor fit]"}, {"smiles": "COc1ccc(OC)c(S(=O)(=O)Nc2cc3c(cc2N2CCCC2)n(C)c(=O)c(=O)n3C)c1", "Potency": "inconclusive: 12.6 µM [quencher, side channel, partial curve]"}, {"smiles": "C=CCc1cc(/C=C2/NC(=O)N(CC(=O)OC)C2=O)cc(OC)c1O", "Potency": "inconclusive: 15.8 µM [quencher, side channel, partial curve]"}, {"smiles": "O=C(CN1C(=O)C2CC=CCC2C1=O)OCC(=O)c1ccc(Cl)c([N+](=O)[O-])c1", "note": "(stereo not drawn)", "Potency": "inconclusive: 14.1 µM [quencher, side channel, partial curve]"}, {"smiles": "Fc1cccc(/C=N/Nc2nccnc2Cl)c1", "Potency": "inconclusive: 31.6 µM [quencher, side channel, single point]"}, {"smiles": "CC(=O)Nc1ccc(Nc2nc(-c3ccccc3)nc3ccccc23)cc1", "Potency": "inactive"}, {"smiles": "O=[N+]([O-])c1ccc(CS(=O)(=O)c2ncn[nH]2)cc1", "Potency": "inconclusive: 14.1 µM [quencher, side channel, partial curve]"}]}]}
